Laboratory results from PMC12820563.
The list shows a part of the results. The list includes weakly bound sequences.

The sequences below were run against T1, MBP-FoxP3dN (UniProt Q99JB6) (assay: PD-seq (MBP pull-down with sequencing)). Conditions: 20 mM Tris-HCl pH 7.5, 100 mM NaCl, 1.5 mM MgCl2, 0.4 uM protein, 0.1 uM dsDNA library, 30 min, room temperature, amylose pull-down; high values mean tight binding; double strand, one strand shown.
T1 sequence: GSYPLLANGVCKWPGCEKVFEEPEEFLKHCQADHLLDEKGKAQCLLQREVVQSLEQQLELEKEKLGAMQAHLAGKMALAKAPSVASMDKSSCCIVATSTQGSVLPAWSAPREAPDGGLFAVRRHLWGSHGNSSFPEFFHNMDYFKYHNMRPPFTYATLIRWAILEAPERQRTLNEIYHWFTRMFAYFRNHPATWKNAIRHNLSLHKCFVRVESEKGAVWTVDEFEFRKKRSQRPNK

Sequence	binding signal (RPM ratio (pull-down/input))
GATGATTGTTCTCCCAGCTGATGAATTACCATGTTCGAGTAAACAAATTTTCCTAATCTTTCTGTTCAAGCGCCATCTAC	0.514
GATGATTGTTCTCCCAGCTGATGAATTTTACGGTTCGAGTAAACAAATTTTCCTAATCTTTCTGTTCAAGCGCCATCTAC	0.338
GATGATTGTTCTCCCAGCTGATGAATTAAGATCGTCGAGTAAACAAATTTTCCTAATCTTTCTGTTCAAGCGCCATCTAC	0.318
GATGATTGTTCTCCCAGCTGATGAATTCTACGTGTCGAGTAAACAAATTTTCCTAATCTTTCTGTTCAAGCGCCATCTAC	0.485
GATGATTGTTCTCCCAGCTGATGAATTCCAGTCTTCGAGTAAACAAATTTTCCTAATCTTTCTGTTCAAGCGCCATCTAC	0.354
GATGATTGTTCTCCCAGCTGATGAATTTTGTGGCTCGAGTAAACAAATTTTCCTAATCTTTCTGTTCAAGCGCCATCTAC	1.92
GATGATTGTTCTCCCAGCTGATGAATTACCGAACTCGAGTAAACAAATTTTCCTAATCTTTCTGTTCAAGCGCCATCTAC	0.269
GATGATTGTTCTCCCAGCTGATGAATTGCACTCTTCGAGTAAACAAATTTTCCTAATCTTTCTGTTCAAGCGCCATCTAC	1.06
GATGATTGTTCTCCCAGCTGATGAATTGCGTCCCTCGAGTAAACAAATTTTCCTAATCTTTCTGTTCAAGCGCCATCTAC	1.31
GATGATTGTTCTCCCAGCTGATGAATTATGCGCTTCGAGTAAACAAATTTTCCTAATCTTTCTGTTCAAGCGCCATCTAC	1.88
GATGATTGTTCTCCCAGCTGATGAATTAACTTAATCGAGTAAACAAATTTTCCTAATCTTTCTGTTCAAGCGCCATCTAC	0.232
GATGATTGTTCTCCCAGCTGATGAATTTTCCTTTTCGAGTAAACAAATTTTCCTAATCTTTCTGTTCAAGCGCCATCTAC	0.231
GATGATTGTTCTCCCAGCTGATGAATTTTGGATTTCGAGTAAACAAATTTTCCTAATCTTTCTGTTCAAGCGCCATCTAC	0.346
GATGATTGTTCTCCCAGCTGATGAATTAGCCTCCTCGAGTAAACAAATTTTCCTAATCTTTCTGTTCAAGCGCCATCTAC	1.57
GATGATTGTTCTCCCAGCTGATGAATTTATGTAGTCGAGTAAACAAATTTTCCTAATCTTTCTGTTCAAGCGCCATCTAC	2.42
GATGATTGTTCTCCCAGCTGATGAATTCCATACCTCGAGTAAACAAATTTTCCTAATCTTTCTGTTCAAGCGCCATCTAC	0.362
GATGATTGTTCTCCCAGCTGATGAATTAATATCTTCGAGTAAACAAATTTTCCTAATCTTTCTGTTCAAGCGCCATCTAC	0.655
GATGATTGTTCTCCCAGCTGATGAATTCACTCTTTCGAGTAAACAAATTTTCCTAATCTTTCTGTTCAAGCGCCATCTAC	0.261
GATGATTGTTCTCCCAGCTGATGAATTTTCGTCTTCGAGTAAACAAATTTTCCTAATCTTTCTGTTCAAGCGCCATCTAC	0.346
GATGATTGTTCTCCCAGCTGATGAATTACGTTCTTCGAGTAAACAAATTTTCCTAATCTTTCTGTTCAAGCGCCATCTAC	0.566
GATGATTGTTCTCCCAGCTGATGAATTGACGTATTCGAGTAAACAAATTTTCCTAATCTTTCTGTTCAAGCGCCATCTAC	1.15

Sequence	binding signal (RPM ratio (pull-down/input))
GATGATTGTTCTCCCAGCTGATGAATTTGCTAAATCGAGTAAACAAATTTTCCTAATCTTTCTGTTCAAGCGCCATCTAC	0.319
GATGATTGTTCTCCCAGCTGATGAATTCACTCCTTCGAGTAAACAAATTTTCCTAATCTTTCTGTTCAAGCGCCATCTAC	0.292
GATGATTGTTCTCCCAGCTGATGAATTAGAATGCTCGAGTAAACAAATTTTCCTAATCTTTCTGTTCAAGCGCCATCTAC	0.839
GATGATTGTTCTCCCAGCTGATGAATTCTTTAATTCGAGTAAACAAATTTTCCTAATCTTTCTGTTCAAGCGCCATCTAC	0.234
GATGATTGTTCTCCCAGCTGATGAATTAAGAATATCGAGTAAACAAATTTTCCTAATCTTTCTGTTCAAGCGCCATCTAC	0.376
GATGATTGTTCTCCCAGCTGATGAATTATATGGCTCGAGTAAACAAATTTTCCTAATCTTTCTGTTCAAGCGCCATCTAC	0.6
GATGATTGTTCTCCCAGCTGATGAATTCAACAGATCGAGTAAACAAATTTTCCTAATCTTTCTGTTCAAGCGCCATCTAC	0.255
GATGATTGTTCTCCCAGCTGATGAATTTATAGCTTCGAGTAAACAAATTTTCCTAATCTTTCTGTTCAAGCGCCATCTAC	1.09
GATGATTGTTCTCCCAGCTGATGAATTGAAATGGTCGAGTAAACAAATTTTCCTAATCTTTCTGTTCAAGCGCCATCTAC	0.258
GATGATTGTTCTCCCAGCTGATGAATTGAACACGTCGAGTAAACAAATTTTCCTAATCTTTCTGTTCAAGCGCCATCTAC	0.368
GATGATTGTTCTCCCAGCTGATGAATTACCCCAGTCGAGTAAACAAATTTTCCTAATCTTTCTGTTCAAGCGCCATCTAC	0.208
GATGATTGTTCTCCCAGCTGATGAATTCTCCACGTCGAGTAAACAAATTTTCCTAATCTTTCTGTTCAAGCGCCATCTAC	0.253
GATGATTGTTCTCCCAGCTGATGAATTTTGCAGATCGAGTAAACAAATTTTCCTAATCTTTCTGTTCAAGCGCCATCTAC	0.618
GATGATTGTTCTCCCAGCTGATGAATTAGGCCTATCGAGTAAACAAATTTTCCTAATCTTTCTGTTCAAGCGCCATCTAC	1.68
GATGATTGTTCTCCCAGCTGATGAATTGTTACGTTCGAGTAAACAAATTTTCCTAATCTTTCTGTTCAAGCGCCATCTAC	0.986
GATGATTGTTCTCCCAGCTGATGAATTACCGTTATCGAGTAAACAAATTTTCCTAATCTTTCTGTTCAAGCGCCATCTAC	0.764
GATGATTGTTCTCCCAGCTGATGAATTCTGCTATTCGAGTAAACAAATTTTCCTAATCTTTCTGTTCAAGCGCCATCTAC	4.04
GATGATTGTTCTCCCAGCTGATGAATTGCAGCATTCGAGTAAACAAATTTTCCTAATCTTTCTGTTCAAGCGCCATCTAC	5.93
GATGATTGTTCTCCCAGCTGATGAATTTATTGCGTCGAGTAAACAAATTTTCCTAATCTTTCTGTTCAAGCGCCATCTAC	3.75
GATGATTGTTCTCCCAGCTGATGAATTATTGAGATCGAGTAAACAAATTTTCCTAATCTTTCTGTTCAAGCGCCATCTAC	0.438
GATGATTGTTCTCCCAGCTGATGAATTGGTGAGATCGAGTAAACAAATTTTCCTAATCTTTCTGTTCAAGCGCCATCTAC	0.341

Sequence	binding signal (RPM ratio (pull-down/input))
GATGATTGTTCTCCCAGCTGATGAATTCTCATATTCGAGTAAACAAATTTTCCTAATCTTTCTGTTCAAGCGCCATCTAC	0.434
GATGATTGTTCTCCCAGCTGATGAATTGTGTACGTCGAGTAAACAAATTTTCCTAATCTTTCTGTTCAAGCGCCATCTAC	3.64
GATGATTGTTCTCCCAGCTGATGAATTTTCGCTATCGAGTAAACAAATTTTCCTAATCTTTCTGTTCAAGCGCCATCTAC	0.627
GATGATTGTTCTCCCAGCTGATGAATTTATATTATCGAGTAAACAAATTTTCCTAATCTTTCTGTTCAAGCGCCATCTAC	1.6
GATGATTGTTCTCCCAGCTGATGAATTATATTACTCGAGTAAACAAATTTTCCTAATCTTTCTGTTCAAGCGCCATCTAC	0.924
GATGATTGTTCTCCCAGCTGATGAATTTCGCCCATCGAGTAAACAAATTTTCCTAATCTTTCTGTTCAAGCGCCATCTAC	1.56
GATGATTGTTCTCCCAGCTGATGAATTTTCGGCGTCGAGTAAACAAATTTTCCTAATCTTTCTGTTCAAGCGCCATCTAC	0.441
GATGATTGTTCTCCCAGCTGATGAATTTGGCAGCTCGAGTAAACAAATTTTCCTAATCTTTCTGTTCAAGCGCCATCTAC	1.53
GATGATTGTTCTCCCAGCTGATGAATTCGAATGTTCGAGTAAACAAATTTTCCTAATCTTTCTGTTCAAGCGCCATCTAC	0.896
GATGATTGTTCTCCCAGCTGATGAATTGATCGACTCGAGTAAACAAATTTTCCTAATCTTTCTGTTCAAGCGCCATCTAC	0.33
GATGATTGTTCTCCCAGCTGATGAATTATCTACGTCGAGTAAACAAATTTTCCTAATCTTTCTGTTCAAGCGCCATCTAC	0.345
GATGATTGTTCTCCCAGCTGATGAATTCGCTAACTCGAGTAAACAAATTTTCCTAATCTTTCTGTTCAAGCGCCATCTAC	0.31
GATGATTGTTCTCCCAGCTGATGAATTTATACTATCGAGTAAACAAATTTTCCTAATCTTTCTGTTCAAGCGCCATCTAC	1.16
GATGATTGTTCTCCCAGCTGATGAATTTTAGAGGTCGAGTAAACAAATTTTCCTAATCTTTCTGTTCAAGCGCCATCTAC	0.246
GATGATTGTTCTCCCAGCTGATGAATTAACTCGGTCGAGTAAACAAATTTTCCTAATCTTTCTGTTCAAGCGCCATCTAC	0.233
GATGATTGTTCTCCCAGCTGATGAATTTGAAATTTCGAGTAAACAAATTTTCCTAATCTTTCTGTTCAAGCGCCATCTAC	0.33
GATGATTGTTCTCCCAGCTGATGAATTGTTTTACTCGAGTAAACAAATTTTCCTAATCTTTCTGTTCAAGCGCCATCTAC	1.55
GATGATTGTTCTCCCAGCTGATGAATTGTCACGGTCGAGTAAACAAATTTTCCTAATCTTTCTGTTCAAGCGCCATCTAC	0.334
GATGATTGTTCTCCCAGCTGATGAATTTAGAGACTCGAGTAAACAAATTTTCCTAATCTTTCTGTTCAAGCGCCATCTAC	0.585
GATGATTGTTCTCCCAGCTGATGAATTGCTGCTCTCGAGTAAACAAATTTTCCTAATCTTTCTGTTCAAGCGCCATCTAC	0.662
GATGATTGTTCTCCCAGCTGATGAATTAAAAATGTCGAGTAAACAAATTTTCCTAATCTTTCTGTTCAAGCGCCATCTAC	0.248
